The supplement of paper PMC3722116
Growth of fresh clinical P. falciparum isolates by hypoxanthine uptake over 42 h; for most isolates 1.6-1,647 nM mefloquine, 0.044-87 nM artesunate, 10-10,256 nM chloroquine, 2.4-236 nM lumefantrine. EC50, lower = more sensitive; slope from the same fit, higher = steeper. No active / inactive call. Fits with a coefficient of variation above 100% are not listed here; 15-28% of fits exceed 15%. Isolates are numbered anew.

Experiments:
lumefantrine [1] = compound: T1, CCCCN(CCCC)CC(O)c1cc(Cl)cc2c1-c1ccc(Cl)cc1/C2=C/c1ccc(Cl)cc1 [lumefantrine]; assay: slope of the dose-response curve (dimensionless); higher = steeper concentration-effect curve
Procedure: (§1)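 Hypoxanthine uptake by fresh isolates, duplicate serial dilutions, 24 h of drug plus 18 h after the label; sigmoid fit per isolate.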

mefloquine [2] = compound: T2, OC(c1cc(C(F)(F)F)nc2c(C(F)(F)F)cccc12)C1CCCCN1 [mefloquine]; assay: as above
Procedure: as §1

chloroquine [3] = compound: T3, CCN(CC)CCCC(C)Nc1ccnc2cc(Cl)ccc12 [chloroquine]; assay: as above
Procedure: as §1

artesunate [4] = compound: T4, C[C@H]1[C@H](OC(=O)CCC(=O)O)O[C@@H]2O[C@@]3(C)CC[C@H]4[C@H](C)CC[C@@H]1[C@@]24OO3 [artesunate]; assay: as above
Procedure: as §1

lumefantrine [5] = compound: T1, lumefantrine
Procedure: as §1

mefloquine [6] = compound: T2, mefloquine
Procedure: as §1

chloroquine [7] = compound: T3, chloroquine
Procedure: as §1

artesunate [8] = compound: T4, artesunate
Procedure: as §1

Test System	slope (lumefantrine [1])	slope (mefloquine [2])	slope (chloroquine [3])	slope (artesunate [4])	EC50 of parasite growth (lumefantrine [5]) [µg/mL]	EC50 of parasite growth (mefloquine [6]) [µg/mL]	EC50 of parasite growth (chloroquine [7]) [µg/mL]	EC50 of parasite growth (artesunate [8]) [µg/mL]
Plasmodium falciparum isolate 75 (pfmdr1 allele: 86N, 1042N, pfmdr1 copies: 1)	2.62	2.51	9.64	6.31	0.0283	0.0361	0.175	0.00132
Plasmodium falciparum isolate 299 (pfmdr1 allele: 86N, 1042N, pfmdr1 copies: 1)	2.04	2.17	3.21	5.84	0.018	0.0125	0.111	0.000604
Plasmodium falciparum isolate 376 (pfmdr1 allele: 86N, 1042N, pfmdr1 copies: 1)	3.16	2.86	10	5.51	0.0141	0.0215	0.281	0.000831
Plasmodium falciparum isolate 378 (pfmdr1 allele: 86N, 1042N, pfmdr1 copies: 1)	3.87	2.42	5.62	6.53	0.0193	0.0391	0.0994	0.000966
Plasmodium falciparum isolate 268 (pfmdr1 allele: 86Y, pfmdr1 copies: 1)	2.04	2.07	5.93	3.19	0.00436	0.00218	0.115	0.000279
Plasmodium falciparum isolate 139 (pfmdr1 allele: 86N, 1042N, pfmdr1 copies: 1)	2.17	2.43	3.98	6.65	0.0291	0.0314	0.168	0.000711
Plasmodium falciparum isolate 245 (pfmdr1 allele: 86N, 1042N, pfmdr1 copies: 1)	1.82	2.25	3.44	5.37	0.00952	0.0144	0.0734	0.000327
Plasmodium falciparum isolate 120 (pfmdr1 allele: 86N, 1042N, pfmdr1 copies: 1)	1.98	3.29	9.09	8.22	0.0122	0.0365	0.376	0.00175
Plasmodium falciparum isolate 197 (pfmdr1 allele: 86N, 1042N, pfmdr1 copies: 1)	2.46	3.65	6.06	5.37	0.0147	0.0271	0.181	0.000539
Plasmodium falciparum isolate 183 (pfmdr1 allele: 86N, 1042N, pfmdr1 copies: 2)	2.13	2.95	3.05	6.67	0.0335	0.0515	0.101	0.0033
Plasmodium falciparum isolate 38 (pfmdr1 allele: 1042D, pfmdr1 copies: 1)	1.72	2.68	4	6.87	0.0153	0.0413	0.206	0.000794
Plasmodium falciparum isolate 408 (pfmdr1 allele: 86N, 1042N, pfmdr1 copies: 1)	1.57	3.85	3.68	2.79	0.0243	0.0355	0.0374	0.000236
Plasmodium falciparum isolate 364 (pfmdr1 allele: 86N, 1042N, pfmdr1 copies: 2)	3.2	5.16	2.57	5.43	0.0534	0.0944	0.0701	0.000723
Plasmodium falciparum isolate 24 (pfmdr1 allele: 86N, 1042N, pfmdr1 copies: 1)	2	2.8	5.32	4.79	0.00994	0.0249	0.167	0.00199
Plasmodium falciparum isolate 198 (pfmdr1 allele: 86N, 1042N, pfmdr1 copies: 1)	5.17	2.29	3.99	10	0.04	0.0272	0.0664	0.000782
Plasmodium falciparum isolate 2 (pfmdr1 allele: 86N, 1042N, pfmdr1 copies: 1)	1.81	1.6	9.73	9.99	0.00797	0.021	0.0874	0.000857
Plasmodium falciparum isolate 458 (pfmdr1 allele: 86Y, pfmdr1 copies: 1)	1.41	1.48	1.25	1.7	0.00204	0.00234	0.16	0.00038
Plasmodium falciparum isolate 315 (pfmdr1 allele: 86N, 1042N, pfmdr1 copies: 1)	2.67	3.4	4.05	8.11	0.02	0.0367	0.0923	0.00259
Plasmodium falciparum isolate 362 (pfmdr1 allele: 86N, 1042N, pfmdr1 copies: 1)	2.76	3.92	5.85	9.99	0.0509	0.0498	0.174	0.000987
Plasmodium falciparum isolate 324 (pfmdr1 allele: 86N, 1042N, pfmdr1 copies: 1)	2.07	3.62	5.48	4.26	0.0149	0.0396	0.0713	0.00135
Plasmodium falciparum isolate 138 (pfmdr1 allele: 86Y, pfmdr1 copies: 1)	2.27	3.05	7.55	3.05	0.0286	0.0183	0.179	0.00112

Test System	slope (lumefantrine [1])	slope (mefloquine [2])	slope (chloroquine [3])	slope (artesunate [4])	EC50 of parasite growth (lumefantrine [5]) [µg/mL]	EC50 of parasite growth (mefloquine [6]) [µg/mL]	EC50 of parasite growth (chloroquine [7]) [µg/mL]	EC50 of parasite growth (artesunate [8]) [µg/mL]
Plasmodium falciparum isolate 367 (pfmdr1 allele: 86N, 1042N, pfmdr1 copies: 1)	0.997	3.66	4.93	5.55	0.0165	0.0291	0.122	0.00218
Plasmodium falciparum isolate 396 (pfmdr1 allele: 86N, 1042N, pfmdr1 copies: 1)	2.78	2.88	6.36	5	0.0152	0.0382	0.0398	0.00225
Plasmodium falciparum isolate 379 (pfmdr1 allele: 86N, 1042N, pfmdr1 copies: 1)	1.47	2.51	3.08	2.4	0.00194	0.00299	0.167	0.000276
Plasmodium falciparum isolate 143 (pfmdr1 allele: 86N, 1042N, pfmdr1 copies: 3)	3.1	3.37	5.87	5.31	0.0166	0.0348	0.211	0.00105
Plasmodium falciparum isolate 370 (pfmdr1 allele: 86N, 1042N, pfmdr1 copies: 1)	1.73	1.71	4.39	3.14	0.00981	0.0145	0.186	0.000211
Plasmodium falciparum isolate 351 (pfmdr1 allele: 86N, 1042N, pfmdr1 copies: 1)	2.19	3.25	4.08	6.44	0.0194	0.0196	0.122	0.000749
Plasmodium falciparum isolate 141 (pfmdr1 allele: 86N, 1042N, pfmdr1 copies: 1)	1.93	2.61	5.41	6.6	0.0284	0.0309	0.114	0.000717
Plasmodium falciparum isolate 276 (pfmdr1 allele: 86Y, pfmdr1 copies: 1)	1.63	2.81	3.84	4.21	0.0074	0.00511	0.147	0.000344
Plasmodium falciparum isolate 47 (pfmdr1 allele: 86N, 1042N, pfmdr1 copies: 1)	1.75	2.61	5.98	5.82	0.0352	0.0348	0.136	0.000758
Plasmodium falciparum isolate 350 (pfmdr1 allele: 86N, 1042N, pfmdr1 copies: 1)	2.64	1.86	6.27	3.69	0.00705	0.014	0.187	0.00238
Plasmodium falciparum isolate 318 (pfmdr1 allele: 86N, 1042N, pfmdr1 copies: 2)	1.2	2.36	2.64	8.85	0.231	0.0555	0.0473	0.0018
Plasmodium falciparum isolate 279 (pfmdr1 allele: 86N, 1042N, pfmdr1 copies: 2)	1.58	2.01	2.8	5.25	0.0331	0.0857	0.119	0.00107
Plasmodium falciparum isolate 349 (pfmdr1 allele: 86N, 1042N, pfmdr1 copies: 2)	2.15	3.66	3.79	6.33	0.0261	0.0691	0.12	0.00209
Plasmodium falciparum isolate 387 (pfmdr1 allele: 86N, 1042N, pfmdr1 copies: 1)	1.46	1.82	5.3	6.17	0.0256	0.0192	0.207	0.000292
Plasmodium falciparum isolate 445 (pfmdr1 allele: 86N, 1042N, pfmdr1 copies: 3)	2.86	4.26	2.37	5.82	0.0274	0.0529	0.032	0.000785
Plasmodium falciparum isolate 252 (pfmdr1 allele: 86N, 1042N, pfmdr1 copies: 3)	3.28	2.87	2.38	4.41	0.0209	0.0699	0.073	0.00724
Plasmodium falciparum isolate 205 (pfmdr1 allele: 86N, 1042N, pfmdr1 copies: 1)	1.96	3.15	9.94	6.63	0.0507	0.0467	0.183	0.000677
Plasmodium falciparum isolate 406 (pfmdr1 allele: 86N, 1042N, pfmdr1 copies: 1)	2.09	2.1	2.8	9.99	0.0206	0.0233	0.0836	0.000455
Plasmodium falciparum isolate 373 (pfmdr1 allele: 86N, 1042N, pfmdr1 copies: 1)	1.86	2.55	4.75	6.09	0.014	0.0293	0.193	0.000459
Plasmodium falciparum isolate 149 (pfmdr1 allele: 86N, 1042N, pfmdr1 copies: 2)	3.14	3.21	3.09	6.46	0.0281	0.0528	0.0592	0.000644
